{"source": "PubChem BioAssay AID624417", "about": "(National Center for Advancing Translational Sciences (NCATS), 2012)", "note": "In all, about 410,000 compounds went through this assay and about 6,400 (1.6%) were called active. This list was built around the results that the source calls inconclusive (neither active nor inactive); the mix of calls is not that of the screen. The call rests on the fitted dose curve; in most records, active means well fitted inhibition curve with a large enough effect; inconclusive means small, poorly fitted or top-dose-only effect; inactive means no such curve, though single readings can be large or run the other way. Potencies of inconclusive entries are left out as doubtful fits. On the % scale 0 is the no-effect control and ±100 the full control effect; potency means the concentration at half of the fitted maximal effect; tags describe the fitted curve by direction and shape."}
{"molecular_target": "Glucagon-like peptide 1 receptor (Homo sapiens) (UniProt P43220)", "sequence (P43220 whole entry, looked up)": "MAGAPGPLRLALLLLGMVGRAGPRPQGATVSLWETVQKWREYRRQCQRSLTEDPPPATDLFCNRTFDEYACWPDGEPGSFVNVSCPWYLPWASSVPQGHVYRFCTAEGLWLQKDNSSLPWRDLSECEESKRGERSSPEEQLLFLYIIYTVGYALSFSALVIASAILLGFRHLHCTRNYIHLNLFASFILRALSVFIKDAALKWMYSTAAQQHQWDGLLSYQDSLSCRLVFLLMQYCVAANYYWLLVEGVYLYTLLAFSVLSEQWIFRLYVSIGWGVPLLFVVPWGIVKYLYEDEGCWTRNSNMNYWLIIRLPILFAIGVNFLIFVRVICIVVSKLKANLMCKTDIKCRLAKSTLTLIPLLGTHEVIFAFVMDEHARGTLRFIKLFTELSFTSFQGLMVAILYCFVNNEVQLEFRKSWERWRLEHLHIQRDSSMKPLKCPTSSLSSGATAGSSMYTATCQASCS", "assay": "qHTS of GLP-1 Receptor Inverse Agonists (Inhibition Mode); further: nearly all actives have a fitted effect of over 55% in size", "conditions": "HEK293 GLP-1R CRE-luciferase, luminescence, 24 h, GLP-1R form is constitutively active; activity change, negative = inhibition: at 38.3 µM (top of the series) unless noted", "in_short": "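Stable HEK293 clone (constitutively active GLP-1R + cAMP-response luciferase); 200 cells/uL plated, 12 h pre-culture, compound 24 hr, 37 deg C/5% CO2; detection reagent 12 min RT; luminescence.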"}
{"smiles": "Cc1c(C(=O)Nc2ccc(C(C)C)cc2)sc2nc[nH]c(=O)c12", "Potency": "inconclusive [inhibitor, single point]"}
{"smiles": "COc1ccc(CNC(=O)CSc2ncc(S(=O)(=O)c3ccc(C)c(Cl)c3)c(=O)[nH]2)cc1", "activity change, negative = inhibition": "inactive: 5.43%"}
{"smiles": "CC(=O)c1sc(=S)n(-c2ccc(Cl)cc2)c1C", "Potency": "inconclusive [inhibitor, partial curve, poor fit]"}
{"smiles": "Cc1ccc(NC(=O)C2CCCN2S(=O)(=O)c2cccc3nsnc23)cc1Cl", "note": "(centres undefined)", "Potency": "inconclusive [inhibitor, single point]"}
{"smiles": "Cc1ccc(/C=N/NC(=O)C2=NNC(c3ccccc3)(c3ccccc3)C2)c(O)c1", "Potency": "inconclusive [inhibitor, full curve, poor fit]"}
{"smiles": "N#Cc1c2c(c(Nc3ccccc3)n3c1nc1ccccc13)CCC2", "activity change, negative = inhibition": "inactive: 0.643%"}
{"smiles": "Cc1cc(C)n(-c2nc3ccccc3c(=O)n2OCC#N)n1", "Potency": "active: 3.16 µM"}
{"smiles": "CCN1CCN(C(=O)Cn2nc(C)n3c(cc4c(OC)cccc43)c2=O)CC1", "Potency": "inconclusive [inhibitor, partial curve, poor fit]"}
{"smiles": "CC1CN(C)C(C)CC1OC(=O)C(c1ccccc1)c1ccccc1", "note": "(centres undefined)", "Potency": "inconclusive [inhibitor, partial curve, poor fit]"}
{"smiles": "O=C(CN(C(=O)c1csnn1)c1cccc2ccccc12)NCc1ccccc1", "activity change, negative = inhibition": "inactive: -16.7%"}
{"smiles": "CSCCC(c1nc2ccccc2[nH]1)n1c(=O)c(-c2cc3ccccc3[nH]2)nc2ccccc21", "note": "(centres undefined)", "Potency": "inconclusive [inhibitor, partial curve, poor fit]"}
{"smiles": "COc1ccc(CC(=O)Nc2cc(S(=O)(=O)N3CCCCC3)ccc2C)cc1", "Potency": "inconclusive [inhibitor, single point]"}
{"smiles": "Cc1ccc(-c2nnc(Nc3ccc(Cl)c(Cl)c3)c3ccccc23)cc1S(=O)(=O)NCCO", "Potency": "inconclusive [inhibitor, partial curve, poor fit]"}
{"smiles": "CC(C)c1ccc(NC(=O)CSc2ncccc2C(=O)Oc2cccc([N+](=O)[O-])c2)cc1", "Potency": "inconclusive [inhibitor, full curve]"}
{"smiles": "OCC1(Cc2ccccc2F)CCCN(CC2CCCCC2)C1", "note": "(centres undefined)", "Potency": "inconclusive [inhibitor, single point]"}
{"smiles": "O=C(CCSc1nnc2ccccn12)Nc1ccc(F)cc1", "activity change, negative = inhibition": "inactive: 3.42%"}
{"smiles": "CC(C)C(N)c1csc(NC(=O)Nc2ccc(OC(F)(F)F)cc2)n1", "note": "(centres undefined)", "Potency": "inconclusive [inhibitor, partial curve, poor fit]"}
{"smiles": "O=C(Nc1cccc2cccnc12)c1ccc(Br)o1", "activity change, negative = inhibition": "inactive: 0.0707%"}
{"smiles": "CCSc1nsc(NC(=O)Nc2ccccc2F)n1", "activity change, negative = inhibition": "inactive: -19.7%"}
{"smiles": "Cc1ccc(NC(=O)CN2C(=O)NC(C)(CCc3ccccc3)C2=O)cc1", "note": "(centres undefined)", "Potency": "inconclusive [inhibitor, full curve, poor fit]"}
{"smiles": "COc1ccc(NCC(=O)Nc2cccc(S(=O)(=O)N3CCCC3)c2)cc1Cl", "Potency": "inconclusive [inhibitor, partial curve, poor fit]"}
{"smiles": "Cc1ccc(OCC(=O)N2CCCCCCC2)cc1C", "Potency": "inconclusive [inhibitor, single point]"}
{"smiles": "CCOC(=O)c1ccc(NC(=O)c2csnn2)cc1", "activity change, negative = inhibition": "inactive: 8.82%"}
{"smiles": "O=C(NC(=S)Nc1cccc2c(O)cccc12)c1cccc(Br)c1", "Potency": "inconclusive [inhibitor, single point]"}
{"smiles": "COc1cc(CC(=O)Nc2cccc(S(=O)(=O)N(C)c3ccccc3)c2)cc(OC)c1OC", "Potency": "inconclusive [inhibitor, partial curve, poor fit]"}
{"smiles": "Cc1cccc(Nc2nnc(-c3ccc(N4CCOCC4)c([N+](=O)[O-])c3)c3ccccc23)c1", "Potency": "inconclusive [inhibitor, partial curve]"}
{"smiles": "CN(C)CCNC(=O)COc1ccc(Cl)cc1Cl", "activity change, negative = inhibition": "inactive: 1.48%"}
{"smiles": "C/C(CC(=O)Nc1cc(Cl)ccc1Cl)=N\\NC(=O)COc1cccc(C)c1", "Potency": "inconclusive [inhibitor, partial curve, poor fit]"}
{"smiles": "Cc1cc(NC(=O)Cc2cc(F)cc(F)c2)no1", "Potency": "inconclusive [inhibitor, full curve]"}
{"smiles": "Cc1ccccc1-c1noc(-c2cccnc2N(C)Cc2ccc(Cl)cc2)n1", "activity change, negative = inhibition": "inactive: 6.24%"}
{"smiles": "COC(=O)NC(NC(=S)Nc1cccc(C)c1)C(Cl)(Cl)Cl", "note": "(centres undefined)", "Potency": "inconclusive [inhibitor, partial curve, poor fit]"}
{"smiles": "COc1ccc(Nc2nnc(SCC(=O)c3cc(C)n(CC4CCCO4)c3C)s2)cc1", "note": "(centres undefined)", "Potency": "inconclusive [inhibitor, partial curve, poor fit]"}
{"smiles": "CCC(C(=O)c1ccccc1)N(C(=O)c1ccccc1Cl)N1C(=O)C2C3C=CC(C3)C2C1=O", "note": "(centres undefined)", "Potency": "inconclusive [inhibitor, single point]"}
{"smiles": "Cc1cccc(C)c1Nc1nnc(SCc2cc([N+](=O)[O-])cc3c2OCOC3)s1", "Potency": "inconclusive [inhibitor, partial curve, poor fit]"}
{"smiles": "Cc1c(C(=O)N2CCN(Cc3cccs3)CC2)oc2ccccc12", "Potency": "inconclusive [inhibitor, single point]"}
{"smiles": "CN(C)c1ccc(CNS(=O)(=O)c2ccc3[nH]c4c(c3c2)CCCCC4)cc1", "Potency": "inconclusive [inhibitor, partial curve, poor fit]"}
{"smiles": "Cc1oc(-c2ccccc2)cc1C(=O)Nc1ccccc1", "Potency": "inconclusive [inhibitor, single point]"}
{"smiles": "O=C1C(Cl)=C(N2CCCCCC2)C(=O)N1c1ccc(Br)cc1", "Potency": "inconclusive [inhibitor, single point]"}
{"smiles": "COc1ccc(C2=CC(c3ccc(OC)c(OC)c3)NC(=S)N2)cc1", "note": "(centres undefined)", "activity change, negative = inhibition": "inactive: 9.13%"}
{"smiles": "CC(=O)c1ccc(NC(=O)c2cnn3ccccc23)cc1", "Potency": "active: 2.51 µM"}
{"smiles": "Cc1nc2ccc(S(=O)(=O)NC(CC(C)C)C(=O)N3CCN(c4ccc(F)cc4)CC3)cc2s1", "note": "(centres undefined)", "activity change, negative = inhibition": "inactive: -21.6%"}
{"smiles": "Cc1ccc(NC(=O)Cc2cn(C)c3ccccc23)cc1F", "Potency": "inconclusive [inhibitor, full curve, poor fit]"}
{"smiles": "C=CCNc1nc(Nc2ccc(Cl)cc2)nc(OC)n1", "Potency": "inconclusive [inhibitor, single point]"}
{"smiles": "Cc1ccc(/C=C2\\SC(=O)N(CCNC(=O)C3CSC4(C)CCC(=O)N34)C2=O)cc1", "note": "(centres undefined)", "Potency": "inconclusive [inhibitor, partial curve, poor fit]"}
{"smiles": "CN1CCN(c2ccccc2/C=C2/C(=O)Nc3ccccc32)CC1", "Potency": "inconclusive [inhibitor, partial curve, poor fit]"}
{"smiles": "CCOC(=O)C1=CCN(S(=O)(=O)c2ccc(C)cc2)C1c1ccc(Cl)c(Cl)c1", "note": "(centres undefined)", "Potency": "inconclusive [inhibitor, single point]"}
{"smiles": "COc1ccc(Cn2cccc(NC(=O)Nc3cccc(OC)c3)c2=O)cc1", "Potency": "inconclusive [inhibitor, single point]"}
{"smiles": "NN=C1c2ccccc2C(=O)C1C(=O)C(c1ccccc1)c1ccccc1", "note": "(centres undefined)", "Potency": "inconclusive [inhibitor, partial curve, poor fit]"}
{"smiles": "COc1ccc(Br)cc1CN(C)CC(=O)Nc1c(Cl)ccc(C)c1Cl", "Potency": "inconclusive [inhibitor, partial curve, poor fit]"}
{"smiles": "CCCNC(=O)c1ccccc1NC(=O)c1ccccc1N(C)S(=O)(=O)c1ccc(C)cc1", "Potency": "inconclusive [inhibitor, partial curve]"}
{"smiles": "C=Cc1ccc(CN2C(=O)c3ccccc3Sc3ccc(C(=O)OCc4ccco4)cc32)cc1", "Potency": "inconclusive [inhibitor, partial curve, poor fit]"}
{"smiles": "O=C(Nc1ccccc1)N(Cc1ccc(F)cc1)c1ccccn1", "Potency": "inconclusive [inhibitor, partial curve, poor fit]"}
{"smiles": "CCSc1nnc(-c2cnn(-c3ccccc3)c2-n2cccc2)n1C", "activity change, negative = inhibition": "inactive: -26.4%"}
{"smiles": "CCOC(=O)c1[nH]c(C)c(/C(O)=C2\\C(=O)C(=O)N(CCN(C)C)C2c2ccncc2)c1C", "note": "(centres undefined)", "Potency": "inconclusive [inhibitor, partial curve, poor fit]"}
{"smiles": "c1ccc(C(c2c[nH]c3ccccc23)c2c[nH]c3ccccc23)nc1", "Potency": "inconclusive [inhibitor, partial curve, poor fit]"}
{"smiles": "NNC(=O)CN1C(c2ccc(Br)cc2)=Nc2ccc(Br)cc2C1c1ccccc1", "note": "(centres undefined)", "Potency": "inconclusive [inhibitor, single point]"}
{"smiles": "COc1ccc(CN2CCC(C)(Oc3cccc(F)c3)C2)c2ccccc12", "note": "(centres undefined)", "Potency": "active: 11.2 µM"}
{"smiles": "Cc1ccsc1C1Nc2ccccc2C(=O)N1O", "note": "(centres undefined)", "Potency": "inconclusive [inhibitor, single point]"}
{"smiles": "O=[N+]([O-])c1ccc(O)c(/C=N/Nc2ccc(Cl)nn2)c1", "activity change, negative = inhibition": "inactive: -89.7%"}
{"smiles": "CC(C(=O)Nc1ccccc1-c1ccccc1)N1CCN(C(=O)c2ccccc2)CC1", "note": "(centres undefined)", "Potency": "inconclusive [inhibitor, single point]"}
{"smiles": "COc1ccc(-n2ncc3c2CC(C)(C)CC3NC(=O)c2ccoc2C)cc1", "note": "(centres undefined)", "Potency": "inconclusive [inhibitor, partial curve, poor fit]"}
{"smiles": "CCc1ccc(CCC(=O)Nc2ccc(Cl)cc2)o1", "Potency": "inconclusive [inhibitor, partial curve, poor fit]"}
{"smiles": "CN1CCCN(Cc2nc(-c3ccc(Cl)cc3)no2)CC1", "Potency": "inconclusive [inhibitor, full curve, poor fit]"}
{"smiles": "Cc1ccc(/C=N/NC(=O)c2cc3c(ccc4ccccc43)o2)o1", "Potency": "inconclusive [inhibitor, single point]"}
